{
  "source": "PubChem BioAssay AID652106",
  "about": "(National Center for Advancing Translational Sciences (NCATS), 2013)",
  "note": "Screen size: about 370,000 compounds; about 500 (0.14%) were called active. Inconclusive means that the source gave no clear call. Such entries were picked first, then a sample of the others. Calls come from the whole dose curve; as a rule, active = well fitted activation curve with a large enough effect; inconclusive = small, poorly fitted or top-dose-only effect; inactive = no such curve, though single readings can be large or run the other way. Potencies of inconclusive entries are left out as doubtful fits. Potency is the fitted concentration of half-maximal effect; tags give direction and shape of the fitted curve.",
  "data": [
    {"test": "qHTS of alpha-syn Inhibitors; note: nearly all actives have a fitted effect of over 65% in size; for growth rescue (activation): % of control where 0% means no effect", "details": "Yeast expressing alpha-synuclein, BacTiter-Glo, 24 h; Potency: growth rescue unless noted; growth rescue (activation): at 46.1 µM (top of the series) unless noted", "in_short": "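Rescue of yeast growth: cells expressing toxic alpha-synuclein, induced in galactose at OD600 0.02, incubated with compound 24 h at 30 C. ATP luminescence quantified growth; inhibitors of toxicity appear as activators.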", "values": [
      {"smiles": "COc1ccc(C(C(=O)NC2CCCC2)n2c(CSCCOc3ccccc3)nc3ccccc32)cc1", "note": "(centres undefined)", "Potency": "inactive"},
      {"smiles": "O=C(CSc1ccc(Cl)cc1)N1CCN(c2c(Cl)cccc2[N+](=O)[O-])CC1", "Potency": "inconclusive [activator, single point]"},
      {"smiles": "COC(=O)CSC1=NS(=O)(=O)c2ccccc21", "growth rescue (activation)": "inconclusive: -70.7% [activator]"},
      {"smiles": "CC(C)(C)c1ccc(Nc2n[nH]c3ccccc23)cc1", "Potency": "inactive"},
      {"smiles": "COc1cccc(CNc2nc3cc(-c4cscc4C)sc3c(=O)n2C)c1", "Potency": "inconclusive [activator, single point]"},
      {"smiles": "Cc1cc(C)cc(OCC(=O)OCC(=O)c2cc(C)n(C3CC3)c2C)c1", "Potency": "inconclusive [activator, partial curve]"},
      {"smiles": "Cc1ccc(-n2nc3c(c2NC(=O)c2ccco2)CS(=O)(=O)C3)cc1", "Potency": "inconclusive [activator, single point]"},
      {"smiles": "Cc1ccc(CNC(=O)c2ccc(CSCc3cccc(C)c3)o2)cc1", "Potency": "inconclusive [activator, single point]"},
      {"smiles": "COc1ccc(NC(=S)NCCCCCC(=O)C[N+](=O)[O-])cc1", "Potency": "inconclusive [activator, partial curve]"},
      {"smiles": "COc1ccccc1/C=C1\\N=C(C(C)(C)C)OC1=O", "Potency": "inconclusive [activator, single point]"},
      {"smiles": "COC(=O)c1cccc(NC(=O)COc2cccc([N+](=O)[O-])c2)c1", "Potency": "inactive"},
      {"smiles": "C[C@@H]1CN([C@H](C)CO)C(=O)CCCn2cc(nn2)CO[C@H]1CN(C)S(=O)(=O)c1ccc2ccccc2c1", "Potency": "inactive"},
      {"smiles": "O=C(Nc1ccn(CCCNCc2ccccn2)c(=O)n1)OCc1ccccc1", "Potency": "inconclusive [activator, single point]"},
      {"smiles": "COc1ccc(OCC(O)CNS(=O)(=O)c2cccc(Cl)c2)cc1", "note": "(centres undefined)", "Potency": "inconclusive [activator, single point]"},
      {"smiles": "CC(=O)C1=CCC(c2ccccc2)N(S(=O)(=O)c2ccc(Cl)cc2)C1", "note": "(centres undefined)", "Potency": "inconclusive [activator, single point]"},
      {"smiles": "CCOC(=O)c1cc(-c2ccccc2)n(CCC(=O)N2CCN(c3ccccc3OC)CC2)c1C", "Potency": "inconclusive [activator, single point]"},
      {"smiles": "c1ccc(C2Nc3ccccc3-c3nc4ccccc4n32)nc1", "note": "(centres undefined)", "Potency": "inconclusive [activator, single point]"},
      {"smiles": "CCCCN(CC)CCNC(=O)c1cn(C)c(=O)c2c1c1ccccc1n2C", "Potency": "inconclusive [activator, single point]"},
      {"smiles": "COc1ccc(N2C(=O)C(O)C2c2ccc(C)cc2)cc1", "note": "(centres undefined)", "Potency": "inconclusive [activator, single point]"},
      {"smiles": "CN(C)c1ccc(C#Cc2ccc3cc(CCO)oc(=O)c3c2)cc1", "Potency": "inactive"},
      {"smiles": "CCCOc1ccc(N2C(=O)CC(N(Cc3ccccc3)N=O)C2=O)cc1", "note": "(centres undefined)", "Potency": "inactive"},
      {"smiles": "OC(Cc1cccnc1)(Cc1cccnc1)c1cc2ccccc2[nH]1", "Potency": "inconclusive [activator, single point]"},
      {"smiles": "CCc1cc2c(SCC(=O)N3CCN(C(=O)c4cccs4)CC3)ncnc2s1", "Potency": "inconclusive [activator, single point]"},
      {"smiles": "COc1ccc(C(=O)Nc2ccc(Nc3ccccc3)cc2)cc1[N+](=O)[O-]", "Potency": "inconclusive [activator, single point]"},
      {"smiles": "CC(C)(C)NC(=O)C(c1ccccn1)N(C(=O)c1csnn1)C1CCCC1", "note": "(centres undefined)", "Potency": "inactive"},
      {"smiles": "O=C(Nc1ccc(F)c(Cl)c1)C1CCCN(c2cnccn2)C1", "note": "(centres undefined)", "Potency": "inconclusive [activator, single point]"},
      {"smiles": "O=C(OCn1nnc2ccccc2c1=O)c1ccc2ncsc2c1", "Potency": "inconclusive [activator, single point]"},
      {"smiles": "Nc1ccc(N=Nc2ccccc2O)c(N)c1", "Potency": "inactive"},
      {"smiles": "Cc1nc(-n2[nH]c3c(c2=O)CCCC3)[nH]c(=O)c1Cc1ccccc1", "Potency": "inconclusive [activator, single point]"},
      {"smiles": "COc1cc(/C=N/Nc2ccc(C(F)(F)F)cn2)ccc1O", "Potency": "inactive"},
      {"smiles": "Cc1cccc(C)c1OCCn1nnc2ccccc21", "Potency": "inactive"},
      {"smiles": "O=C1[C@@H]2[C@@H]3C[C@@H]([C@H]4ON=C(c5ccc(Cl)cc5Cl)[C@@H]34)[C@@H]2C(=O)N1C1CCCCC1", "Potency": "inconclusive [activator, single point]"},
      {"smiles": "Cc1cc(C)cc(-n2c(SCC(N)=O)nc3c([nH]c4ccccc43)c2=O)c1", "Potency": "inactive"},
      {"smiles": "O=C1CCCC[C@@H](O)[C@H](O)C[C@H](c2ccccc2)O1", "Potency": "inactive"},
      {"smiles": "N#Cc1cc2c(nc1SCc1cccnc1)CCCCC2", "Potency": "inconclusive [activator, single point]"},
      {"smiles": "CCCCN1C(=O)c2ccc(C(=O)NCCN3C(=O)S/C(=C\\c4cccnc4)C3=O)cc2C1=O", "Potency": "inactive"},
      {"smiles": "COc1ccc(C(C)(NC(C)=O)c2nc(-c3cccc(C#N)c3)cs2)cc1", "note": "(centres undefined)", "Potency": "inconclusive [activator, single point]"},
      {"smiles": "CC(C)(C)NC(=O)c1ccc2c(c1)N(CC(=O)N1CCN(c3ccccc3F)CC1)C(=O)C(C)(C)O2", "Potency": "inactive"},
      {"smiles": "C#CCOCCOCCOCCNc1nc(N2CCN(C(=O)CCCCCCCCCCNC(=O)Cn3cc(CCCCCN)nn3)CC2)nc(N2CCN(C(=O)CCCCCCCCCCNC(=O)Cn3cc(C[C@@H](C)O)nn3)CC2)n1", "Potency": "inactive"},
      {"smiles": "CC(NC(=O)CSc1ccc(S(=O)(=O)N2CCOCC2)cn1)c1ccc(Cl)cc1Cl", "note": "(centres undefined)", "Potency": "inconclusive [activator, single point]"},
      {"smiles": "CN(C)c1ccc(/C=C(/C(=O)c2ccc(Cl)cc2Cl)n2cncn2)cc1", "Potency": "inconclusive [activator, single point]"},
      {"smiles": "O=C(CCNS(=O)(=O)c1ccc(Br)s1)N1CCN(c2ccccc2)CC1", "Potency": "inconclusive [activator, single point]"},
      {"smiles": "Cc1cc(C)cc(N(CCC#N)C(=O)CSC2=Nc3ccccc3C3CC=NN23)c1", "note": "(centres undefined)", "Potency": "inconclusive [activator, single point]"},
      {"smiles": "Cc1ccc(CN2CCN(Cc3ccccc3)C(CCO)C2)s1", "note": "(centres undefined)", "Potency": "inconclusive [activator, single point]"}
    ]}
  ]
}
